The whole screen tested about 110,000 compounds, of which about 230 (0.21%) showed an effect of 50% or more. This is one part of the list.
biological target: DPAP1 (Plasmodium falciparum, UniProt Q8IIJ9); assay: primary screen, percent inhibition; read by cleavage of a fluorogenic dipeptide substrate; higher = more effect of the substance; parameters: species or system P. falciparum D10 trophozoite lysates; single well
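Also: 30 min substrate incubation versus DMSO and 10 µM JCP410 controls.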

DPAP1, sequence (Q8IIJ9 whole entry, looked up): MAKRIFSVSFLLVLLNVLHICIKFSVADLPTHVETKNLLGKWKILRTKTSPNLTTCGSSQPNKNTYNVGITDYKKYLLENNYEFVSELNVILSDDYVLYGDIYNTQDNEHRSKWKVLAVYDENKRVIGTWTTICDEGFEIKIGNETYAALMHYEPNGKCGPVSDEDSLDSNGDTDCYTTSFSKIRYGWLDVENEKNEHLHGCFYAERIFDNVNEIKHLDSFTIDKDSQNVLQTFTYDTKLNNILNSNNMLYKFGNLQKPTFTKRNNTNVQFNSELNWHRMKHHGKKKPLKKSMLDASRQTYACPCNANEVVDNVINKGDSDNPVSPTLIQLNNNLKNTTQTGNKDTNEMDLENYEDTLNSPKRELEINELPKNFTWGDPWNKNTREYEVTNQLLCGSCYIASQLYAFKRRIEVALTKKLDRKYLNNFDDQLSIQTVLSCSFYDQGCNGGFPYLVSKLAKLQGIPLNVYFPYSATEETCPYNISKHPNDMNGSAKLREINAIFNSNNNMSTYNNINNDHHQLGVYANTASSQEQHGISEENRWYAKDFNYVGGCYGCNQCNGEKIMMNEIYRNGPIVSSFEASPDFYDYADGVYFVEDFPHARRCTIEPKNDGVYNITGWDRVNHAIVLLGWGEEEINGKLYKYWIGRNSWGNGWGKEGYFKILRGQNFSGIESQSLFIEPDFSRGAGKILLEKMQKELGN

SMILES	% Inhibition @ 10 uM [%]
CN(C)/C=C/C=C/C=C/C1=[N+](C)c2ccccc2C1(C)C	1.31
O=S(=O)(Nc1ccc(-c2cn3ccsc3n2)cc1)c1ccc2ccccc2c1	6.24
Cc1ccc(SCc2n[nH]c3c2C(c2ccc(C)o2)C(C#N)=C(N)O3)cc1 (stereo not shown)	-4.49
CCOc1ccc2ncc(S(=O)(=O)c3ccc(F)cc3)c(O)c2c1	-5.49
Cc1ccc2c(=O)cc(C(=O)Nc3sc4c(c3C#N)CCCC4)oc2c1C	0.248
CN(C)c1ccc(/C=C2\SC(N3CCCC3)=NC2=O)cc1	-1.98
CCCc1[nH]nc2c1C(c1ccc(OCCN3CCOCC3)c(OC)c1)C(C#N)=C(N)O2 (stereo not shown)	-6.36
CN1C(c2ccccc2)CC(O)CC1c1ccccc1 (stereo not shown)	2
CC1=CC(C)(C)N(Cc2ccc([N+](=O)[O-])cc2)c2cc(C)ccc21	-3.93
O=C(O)CCc1nnc2ccc(Cl)nn12	0.708
CCOc1ccc(C(=O)NC2CCCCC2)cc1	15.2
Cc1noc2ncnc(NCC3CCN(Cc4ccc(Cl)cc4)CC3)c12	-0.171
COc1ccccc1-n1c(C)c(C(=O)O)c2cc(OC)c3ccccc3c21	-0.467
N#CC1=C(N)Oc2[nH]nc(-c3ccccc3)c2C1c1ccc(Cl)s1 (stereo not shown)	0.851
Cc1cccc(Cn2c(SCc3ccc(C(=O)O)cc3)nc3cccnc32)c1	7.75
CC(=O)N1CCC(NC(c2ccccc2)c2ccccc2)CC1	-1.86
CC(C)Cc1nc2ccccc2n1Cc1ccccc1	7.28
COc1ccc(C2Nn3c(nnc3-c3ccccc3)SC2C(=O)N2C(C)CCCC2C)cc1 (stereo not shown)	-9.37
Clc1ccc2c(Sc3cccc4cccnc34)ccnc2c1	1
COc1ccc2nc3oc(C(=O)NCc4cccnc4)cc3cc2c1	5.1
CN(C)CCCN1C(=O)C(O)=C(C(=O)c2ccc(S(=O)(=O)N(C)C)cc2)C1c1ccccc1 (stereo not shown)	0.487
CCCC1=NN2C(=N)/C(=C\c3ccc(SCc4ccco4)o3)C(=O)N=C2S1	0.458

SMILES	% Inhibition @ 10 uM [%]
COc1ccc(OC)c(CNc2ccccc2)c1	-7.08
O=C(CCCn1ncn2c(cc3occc32)c1=O)NCc1cccc(Cl)c1	-5.63
N#C/C(=C/c1ccco1)c1nc(-c2cc3ccccc3oc2=O)cs1	-2.47
CCN1CCc2c(sc(N)c2C(N)=O)C1	3.65
Cc1ccc(S(=O)(=O)N2CCC(C(=O)N3CCN(C)CC3)CC2)cc1	-1.17
COc1ccc(S(=O)(=O)/N=C2\C=CC(=O)c3ccccc32)cc1	5.12
O=C(O)C(Cc1ccccc1)N1C(=O)C2C3c4ccccc4C(c4ccccc43)C2C1=O (stereo not shown)	3.29
COc1ccc2ccccc2c1/C=C(\C#N)C(=O)NCCc1ccccc1	-3.78
CCOc1ccc(NC(=O)CSc2ncccn2)cc1	-3.37
O=C1c2ccccc2-c2ncnc3ccc(Cl)c1c23	3.9
O=C(Cc1ccccc1)NCc1nnc(SCC(=O)Nc2nccs2)n1-c1ccc(F)cc1	2.12
COc1cc2nc(S)nc(NCCNC(C)=O)c2cc1OC	4.01
CN1CCN(C2Cc3ccccc3Sc3c(O)cccc32)CC1 (stereo not shown)	0.59
Cc1ccc(C(=O)Nc2cccc3cccnc23)cc1C	-0.884
COc1cc(CCC(=O)Nc2noc3ccccc23)cc(OC)c1OC	-1.11
CCC(CC)c1nc(C#N)c(NCc2ccccc2)o1	-1.84
CCN1C(=O)/C(=C\c2ccccc2O)C(C(=O)OC)=C1C	-7.18
CC(=O)Nc1ccc(NC(=O)c2ccc([N+](=O)[O-])o2)cc1	0.98
O=S1(=O)CCC(NS(=O)(=O)C2CCS(=O)(=O)C2)C1 (stereo not shown)	-6.29
CC(C(=O)N1CCN(c2ccccc2)CC1)N(c1ccccc1)S(C)(=O)=O (stereo not shown)	2.44
CCN(CC)CCCNC(=O)C(C)Sc1nc(-c2ccccc2)cc(C(F)(F)F)n1 (stereo not shown)	4.08
O=C(CC(NCCN1CCOCC1)C(=O)O)Nc1ccc(Cl)cc1Cl (stereo not shown)	-1.51

SMILES	% Inhibition @ 10 uM [%]
CC1(C)OC[C@@H]([C@H](O)P(=O)(c2ccccc2)c2ccccc2)O1	1.72
COc1cccc(-c2noc(CCC(=O)N(C)C)n2)c1	5.82
CCCOc1ccc(C2C3=C(O)c4ccccc4C3=Nc3c2c(=O)n(C)c(=O)n3C)cc1OC (stereo not shown)	7.16
Cc1[nH]cnc1CN1C[C@@H]2C[C@H](C1)c1cccc(=O)n1C2	-3.63
O=C(O)CCCc1nnc2n3nc(-c4ccccc4)nc3c3ccccc3n12	26.8
COc1ccc(-c2ccc3c(N)c(C(=O)Nc4ccc(OC)cc4OC)sc3n2)cc1	2.44
NS(=O)(=O)c1ccc(NC(=O)c2ccccc2C(=O)O)cc1	2.4
CN(C)c1ccc2c3c(cccc13)C(=O)N(Cc1ccccc1)C2=O	2.69
CCOc1ccc(C2=NN(c3ccccc3Cl)C(c3ccccc3F)C2)cc1 (stereo not shown)	-8.03
COc1cc(OC)c(OC)cc1CN1CCN(C(=O)C(c2ccccc2)c2ccccc2)CC1	-6.91
CC(=O)OC1CCC2(C)C(CCC3C4CC=C(/C(C)=N\O)C4(C)CCC32)C1 (stereo not shown)	2.22
Cc1cc(C2C(C#N)=C(N)N(c3nc[nH]n3)C3=C2C(=O)CC(C)(C)C3)c(C)s1 (stereo not shown)	-3.63
C=CCn1cnc2sc(C)c(-c3ccc(OCC)cc3)c2c1=O	-4.02
CCN1CCN(C(=O)c2cnn(-c3ccccc3)c2NC(=O)c2ccccc2C)CC1	-3.41
Cc1nc2nc(-c3ccco3)nn2c(O)c1C	-2.4
COc1cc(OC)c(OC)cc1CN1CCN(Cc2ccco2)CC1	3.86
CC(C)CCNC(=O)CCn1ccc2cc(S(=O)(=O)N3CCCC3)ccc21	-1.76
Cc1nnc(N2C(=N)S/C(=C\c3ccccc3Cl)C2=O)s1	1.52
O=C(CSCC(=O)Nc1ccc(Br)cc1)Nc1ccc(F)cc1	-5.92
CC1CCCN(C(=O)Cn2cnc3c2c(=O)n(C)c(=O)n3C)C1 (stereo not shown)	-1.06

Reference: PMC6919601, “Identification of Plasmodium dipeptidyl aminopeptidase allosteric inhibitors by high throughput screening” (PLoS ONE, 2019)
